# In PubChem BioAssay AID1963576 (National Center for Advancing Translational Sciences (NCATS), 2024):
# In all, about 46,000 compounds went through this assay and about 60 (0.1%) were called active. Another 3% or so got no clear call; they are omitted. Calls come from the whole dose curve; as a rule, active = well fitted inhibition curve with a large enough effect; inconclusive = small, poorly fitted or top-dose-only effect; inactive = no such curve, though single readings can be large or run the other way. Some of the results follow.
# Assay: Primary qHTS assay for Inhibitors of ovarian cancer metastasis using an organotypic tumor microenvironment (TME) model.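 For activity change, negative = inhibition: plate controls were DMSO wells for no effect and tomatine positive control wells for full effect.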 Note: nearly all actives have a fitted effect of over 65% in size.
# Details: SKOV3ip1-GFP adhesion/invasion on 3D omental model, fluorescence; series mostly up to 45.8 µM; activity change, negative = inhibition: at the top concentration
# Procedure, shortened: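 Primary human omental fibroblast/mesothelial 3D culture pre-formed 48 h. SKOV3ip1-GFP cells added with compounds (0.36-46 umol/L), incubated 2 h RT/16 h 37 C, fixed; GFP cells quantified at 488/509 nm.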
SMILES,"activity change, negative = inhibition",outcome
CC(C)CCn1c(=O)c2sccc2n2c(CCCC(=O)NCc3ccc(F)cc3)nnc12,inactive: -4.59%,–
CCc1ccccc1NC(=O)c1cc(S(=O)(=O)N2CCCc3ccccc32)ccc1F,inactive: 2.81%,–
Cc1c(C(=O)Nc2ccc(F)cc2)sc2nc[nH]c(=O)c12,inactive: 23.9%,–
CCOc1ccc(C(=O)Nc2cc(-c3nc4ccccc4s3)ccc2OC)cc1,inactive: 4.22%,–
COc1ccc(C2=C(Nc3ccc(C)c(C)c3)c3ccccc3C2=O)cc1,–,inactive
N#Cc1cccc(NC(=O)c2cc3c(s2)-c2ccc(Cl)cc2SC3)c1,–,inactive
COc1ccccc1N1CCN(C(=O)c2cc(-c3ccccc3O)on2)CC1,inactive: 3.99%,–
CCOc1ccccc1CNC(=O)c1cccn1-c1nnc(N2CCCCC2)s1,–,inactive
Cc1ccn2c(=O)c(C(=O)NC(C)c3ccccc3)c(O)nc2c1 (stereo unspecified),–,inactive
O=C(COc1ccccc1[N+](=O)[O-])Nc1ccc(-c2nc3ccccc3s2)cc1,inactive: -11.3%,–
COc1ccc(CCNC(=O)c2ccc3c(c2)N(Cc2ccc(F)cc2)CCS3)cc1OC,inactive: -0.239%,–
CCc1nn(CC(=O)NCc2ccccc2Cl)c(=O)c2cccn12,inactive: 2.11%,–
COc1ccc(NC(=O)c2cnc[nH]2)cc1,–,inactive
COc1ccc(S(=O)(=O)c2cc(NS(=O)(=O)c3ccc(Cl)cc3)c(C)c(C)c2O)cc1,–,inactive
COc1ccccc1-n1c(-c2ccc(C)cc2)cn2c3c(=O)n(C)c(=O)n(C)c3nc12,inactive: 3.36%,–
O=S(=O)(c1ccccc1)c1nc(-c2cccs2)oc1SCc1ccc(F)cc1,inactive: 13.2%,–
Cc1nc(SCC(=O)Nc2ccccc2F)[nH]c(=O)c1Cc1ccccc1,inactive: -17.1%,–
COC(=O)CCNC(=O)N1CCN(c2nnc(C)c3c(C)n(-c4ccc(Cl)cc4)nc23)CC1,inactive: -4.24%,–
Cc1ccc(NC(c2ccc(Cl)cc2)c2nnc(-c3cccc(F)c3)o2)cc1C (stereo unspecified),inactive: 0.692%,–
COC(=O)c1ccc(NC(=O)CN2C(=O)c3cccc4cccc2c34)cc1,inactive: 11.9%,–
COc1ccc(-c2cn3nc(SCC(=O)Nc4ccc(C)c(Cl)c4)ccc3n2)cc1,inactive: -8.11%,–
O=S(=O)(NCC(Nc1ccc(Cl)cc1)c1ccccc1)c1ccccc1 (stereo unspecified),inactive: 1.87%,–
O=C(CSc1nc2c([nH]c3ccccc32)c(=O)n1-c1ccc(Cl)cc1)N1CCCC1,–,inactive
Cc1cc(C)c(NC(=O)COc2ccc3c(C)cc(=O)oc3c2)c(C)c1,–,inactive

SMILES,"activity change, negative = inhibition",outcome
COc1ccc(OC)c(CCNC(=O)c2c3c(nc4ccccc24)C(=O)N(C2CCCCC2)C3)c1,inactive: -13.4%,–
COc1ccc(-c2noc(C3CC(=O)N(c4ccccc4)C3)n2)c(OC)c1 (stereo unspecified),–,inactive
CCN(CCCNC(=O)c1cc(Nc2ccccc2OC)nc2ccccc12)c1cccc(C)c1,–,inactive
COc1cccc(Nc2nc3cc(Cl)c(Cl)cc3nc2-n2nc(C)cc2C)c1,inactive: -7.83%,–
COc1ccc(NC(=O)Cn2nc(C)c3nn(-c4ccc(Cl)cc4)c(C)c3c2=O)cc1,–,inactive
CCOc1ccc(S(=O)(=O)c2cn(Cc3cc(C)ccc3C)c3ccc(OCC)cc3c2=O)cc1,inactive: 0.974%,–
CCOC(=O)Cn1c(=O)oc2cc(S(=O)(=O)N3CCN(c4ccc(C(C)=O)cc4)CC3)ccc21,–,inactive
COc1ccccc1NC(=O)C1=C(C)Nc2nc(SCc3ccccc3)nn2C1c1cccnc1 (stereo unspecified),inactive: 1.38%,–
O=C(Nc1ccccc1)C1CCN(S(=O)(=O)c2ccc3[nH]c4c(c3c2)CCCCC4)CC1,inactive: 0.964%,–
COc1ccc(CCNC(=O)CCn2c(=O)c3ccccc3n(CC(=O)Nc3ccc(C)cc3C)c2=O)cc1OC,–,inactive
CCOc1ccc(-c2nc(Cn3c(=O)cc(C)c4c(C)nn(-c5ccc(C)cc5)c43)c(C)o2)cc1,–,inactive
CCc1c(C)sc2c1CCN(C(=O)Nc1ccc(F)c(Cl)c1)C2c1ccc(F)cc1 (stereo unspecified),inactive: -20.5%,–
COc1ccccc1CNC(=O)c1cnc(N2CCCC2)nc1C,inactive: -5.3%,–
CCCOC(=O)c1ccc(Cn2nnc3sc4c(c3c2=O)CCC(C)C4)cc1 (stereo unspecified),inactive: 0.641%,–
CCOc1ccc(NC(=O)c2cc(S(=O)(=O)N3CCOCC3)ccc2F)cc1,inactive: 20.8%,–
COc1ccccc1N(CC(=O)NCCSCc1cccc(Cl)c1)S(C)(=O)=O,inactive: -14.1%,–
O=C(C1CCC(Cn2c(=O)c3sccc3n(Cc3ccccc3F)c2=O)CC1)N1CCCCC1 (stereo unspecified),inactive: 5.59%,–
Cn1c(=O)c2c(c3ccccc31)OC(=O)CC2c1cccc(F)c1 (stereo unspecified),inactive: 7.84%,–
CCOc1ccc(NC(=O)c2cc3c(=O)n(Cc4cccs4)ccc3nc2C)cc1,inactive: 2.81%,–
O=C(Nc1ccc(Cl)cc1)N1CCN(c2ccc3nnc(-c4ccccc4)n3n2)CC1,–,inactive
CC(C)NC(=O)C1CCN(C(=O)c2cc3sccc3n2Cc2ccc(Cl)cc2)CC1,inactive: -2.66%,–
Cc1cc(C)c(NC(=O)c2ncoc2-c2ccco2)c(C)c1,inactive: -4.2%,–
CCCCNC(=O)C1CCN(S(=O)(=O)c2ccc3c(ccn3CC)c2)CC1,inactive: 18.2%,–
CCN(CC)CCSc1nnc2c3cc(F)ccc3n(C)c2n1,inactive: -26.1%,–

SMILES,"activity change, negative = inhibition",outcome
O=S(=O)(NCCc1csc2nc(-c3ccccc3)nn12)c1ccc(Cl)s1,inactive: -6.63%,–
COc1ccc2c(CNC3CCCCCC3)c(C(=O)O)n(Cc3cccc(F)c3)c2c1,inactive: -0.148%,–
Cc1cc(C)cc(NC(=O)CSc2nnc(-c3cc4occc4n3C)n2-c2ccccc2C)c1,–,inactive
Cc1ccc(-c2noc(CN(C(=O)COc3cc(C)cc(C)c3C)C(C)C)n2)cc1,inactive: -2.46%,–
COc1ccc(-c2noc(CNS(=O)(=O)c3ccc(Br)cc3)n2)cc1OC,inactive: 3.28%,–
COC(=O)c1ccc(OC)c(CN2C(=O)N(c3ccc(C(C)=O)cc3)S(=O)(=O)c3ccccc32)c1,–,inactive
CCOC(=O)c1c(C)[nH]c(CCC(=O)Nc2ccc(Cl)cc2C)c1C,inactive: -9.83%,–
Cc1ccc(CNC(=O)c2nnn(CC(=O)Nc3cc(C)ccc3C)c2N)cc1,inactive: -1.03%,–
CSCCC(NS(=O)(=O)c1ccc2c(c1)oc(=O)n2C)C(=O)N1CCN(c2cccc(Cl)c2)CC1 (stereo unspecified),inactive: -7.52%,–
COc1ccc(CCNC(=O)c2cnc3sc(N4CCCC4)nn3c2=O)cc1OC,inactive: 11.9%,–
O=C(CN1C(=O)COc2ccc(S(=O)(=O)N3CCCCC3)cc21)NCc1ccc(Cl)cc1,–,inactive
CN(C(=O)c1cc2c(s1)-c1ccc(Cl)cc1SC2)c1cccc(C(F)(F)F)c1,–,inactive
CCOc1ccc(-c2cc(-c3nc(-c4cc(OC)c(OC)c(OC)c4)no3)[nH]n2)cc1,inactive: -3.12%,–
COc1cc(NC(=O)c2cc3ccccn3n2)cc(OC)c1OC,inactive: 0.939%,–
CCc1ccccc1NS(=O)(=O)c1ccc(NC(=O)N2CCCC2)cc1,inactive: 14.4%,–
Cc1ccc(CN(Cc2ccco2)C(=O)COc2ccc(Cl)cc2)o1,inactive: -3.2%,–
CCOC(=O)c1cc(-c2ccc(F)cc2)n(CCC(=O)NCCc2ccc(C)cc2)c1C,inactive: -8.08%,–
Fc1ccc(-c2noc3ncnc(NCC4CCN(Cc5ccc(Cl)cc5)CC4)c23)cc1,inactive: -11.9%,–
CC(=O)c1ccc(NC(=O)c2ccc(-c3nc(CSc4ccccc4)c(C)o3)cc2)cc1,–,inactive
Cc1cc2nc3c(=O)[nH]c(=O)nc-3n(CC(O)C(O)C(O)CO)c2cc1C (stereo unspecified),inactive: -6.38%,–
Cc1ccc2cc3c(N)nn(C(=O)c4cccc(F)c4)c3nc2c1,inactive: -32.9%,–
COc1cc(NC(=O)c2cc(C)nc3c2c(C)nn3-c2ccccc2Cl)cc(OC)c1,–,inactive
Cc1cc2c(cc3c(SCc4nc(-c5ccccc5)oc4C)nnc(C)n32)o1,inactive: 2.83%,–
Cc1ccc(N2CCN(S(=O)(=O)c3ccc(F)c(C(=O)Nc4ccc(Cl)cc4Cl)c3)CC2C)cc1 (stereo unspecified),inactive: 19.6%,–

SMILES,"activity change, negative = inhibition",outcome
Cc1cc(C)cc(NC(=O)Cn2nnc(-c3nc(-c4ccncc4)no3)c2N)c1,inactive: -6.25%,–
CCn1ccc2c(OCC(=O)Nc3ccccc3C)cccc2c1=O,inactive: -2.87%,–
COc1cccc(CNC(=O)c2cc(C)nc3c2c(C)nn3-c2cccc(F)c2)c1,inactive: -5.82%,–
COc1ccc(S(=O)(=O)Nc2ccc3c(c2)CCCN3S(=O)(=O)c2ccc(C)cc2)cc1F,inactive: 4.34%,–
COC(=O)c1cc(NC(=O)c2nn(C)c3c2COc2ccccc2-3)cc(C(=O)OC)c1,–,inactive
Nc1c(C(=O)Nc2ccc(F)c(F)c2)sc2nc(-c3ccncc3)ccc12,–,inactive
COc1ccc(N2CCN(C(=O)c3cccc(NC(=O)c4nsc5ccccc45)c3)CC2)cc1,inactive: 0.164%,–
CCOC(=O)c1ccc(NC(=O)Nc2cc3c(cc2N2CCCC2)n(C)c(=O)n3C)cc1,–,inactive
O=C(Nc1ccc2nc(SCC(=O)N3CCCc4ccccc43)sc2c1)c1ccccc1,–,inactive
CCC(CC)C(=O)Nc1nc2c(s1)CC(C)CC2 (stereo unspecified),inactive: 1.17%,–
COc1ccc(-n2nnnc2C2CCN(S(=O)(=O)c3ccc(C(C)(C)C)cc3)CC2)cc1,inactive: 3.56%,–
Cc1ccc(S(=O)(=O)NCCc2cn3ccsc3n2)cc1,inactive: 4.15%,–
COc1cc(-c2nn(C3CCC(N4CCN(C(C)=O)CC4)CC3)c3ncnc(N)c23)ccc1NC(=O)c1cc2ccccc2n1C (stereo unspecified),inactive: 0.781%,–
COc1ccccc1NC(=O)C1=C(C)Nc2nc(SCc3ccccc3F)nn2C1c1cccs1 (stereo unspecified),–,inactive
O=C(COCc1cc(-c2ccc3c(c2)OCO3)on1)N1CCN(c2ccccc2)CC1,inactive: -9.99%,–
CCc1ccccc1NC(=O)C1CCCN(c2ncnc3onc(C)c23)C1 (stereo unspecified),inactive: 11.3%,–
Cc1nc2ccn(Cc3ccco3)c(=O)c2cc1C(=O)N1CCN(c2ccccc2)CC1,–,inactive
Cc1ccc(C2c3[nH]c4ccccc4c3CCN2C(=O)CCC2CCCC2)cc1 (stereo unspecified),–,inactive
COc1ccc(CNC(=O)c2ccc(CS(=O)Cc3ccccc3Cl)o2)cc1 (stereo unspecified),inactive: -9.39%,–
COc1ccc(NC(=O)CCc2nnc3n(CC(C)C)c(=O)c4ccccc4n23)cc1,inactive: -4.27%,–
Cc1ccc(NC(=O)Cn2ccn(-c3ccc(F)c(F)c3)c(=O)c2=O)cc1C,inactive: -5.68%,–
Cc1ccc(-n2nc(C(=O)N3CCN(c4cc(Cl)ccc4C)CC3)c3c4ccccc4n(C)c3c2=O)cc1,inactive: -5.7%,–
O=C(c1ccc(CSc2nc3ccncc3n2Cc2ccccc2)cc1)N1CCCCCC1,inactive: 9%,–
O=c1c(S(=O)(=O)c2cccc(Cl)c2)cn(Cc2ccccc2)c2cc(N3CCOCC3)c(F)cc12,inactive: 2.35%,–
